In article PMC12040169 (PLOS Biology, 2025):
The list shows a part of the results.

The compounds below were run on T1, C. trachomatis L2/434/Bu expressing GFP (CTL2-GFP). Conditions: total inclusion area; 28.5 h, 10 µM; inhibitor.
T1 construct: L2/434/Bu GFP intracellular growth in HeLa cells
Parameters: species or system HeLa; C. trachomatis total inclusion area by high-content imaging, normalised to DMSO
In short: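 After bulk GFP and resorufin fluorescence reads, cells were fixed, stained with Hoechst and imaged by high-content microscopy. Inclusion area and number (GFP) stood in for chlamydial growth, nuclei count (Hoechst) for host cell viability. MICs were derived as for the bulk readout.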

SMILES	% of control remaining
CCn1ncc(CN2CCCCCC2c2cc(C)on2)c1C (centres unmarked) [CBK282141]	108.537
C=CCN1C(=O)C2(CC(=O)N(CCOc3ccccc3)C2=O)c2ccccc21 (centres unmarked) [CBK075159]	98.6342
Cc1cc(-c2cn(C)nc2C2CCCN2C(=O)CC(C)(C)C)on1 (centres unmarked) [CBK283453]	96.4224
CCN(CC(=O)O)S(=O)(=O)c1cc(C)ccc1OC [CBK268694]	94.1023
CCc1nnc(NS(=O)(=O)c2ccc(N/C=C\C(=O)c3ccc4ccccc4c3)cc2)s1 [CBK263385]	26.0055
COc1ccc(N)cc1OCc1cn2ccccc2n1 [CBK295609]	95.1179
CN1C(=O)COc2ccccc2CCCC[C@@H]2[C@H]1CCCN2CCO [CBK292112]	118.297
CCc1noc(CN2CCN(c3ccc(C(=O)OC)cc3)CC2C)n1 (centres unmarked) [CBK306154]	25.5003
CCOC(=O)CNS(=O)(=O)c1cccc(Cl)c1C [CBK004702]	129.401
FC(F)(F)c1cccc(SCCc2ccccn2)n1 [CBK103719]	83.0418
CC(C)CNC(=O)c1cc(C2CN(Cc3c[nH]nc3C(C)(C)C)CCO2)nc2ccccc12 (centres unmarked) [CBK285925]	81.6299
CCOc1ccc(S(=O)(=O)Nc2cnccn2)cc1 [CBK270313]	116.243
COc1ccc(CNc2ccc(N3CCOCC3)c(C(=O)O)c2)cc1OC [CBK269915]	105.943
O=C(O)CCCN1C(=O)/C(=C/c2ccc(O)c(O)c2)SC1=S [CBK262852]	65.966
O=C1NCCN1CCOc1nccnc1-c1ccc(F)cc1 [CBK106898]	105.027
COc1ccccc1-c1cn2ccnc2c(NCCc2ccccn2)n1 [CBK037980]	119.731
CSCCC(=O)N1CCC(Cn2cncn2)(C2CCCCC2)CC1 [CBK136799]	85.7767
CCN1CCC(Oc2nccnc2OCc2cc(C)on2)CC1 [CBK082962T]	96.6697
COCCOCCOc1ccccc1OCCOCCOC [CBK009636]	45.2905
CC(Oc1ccc(-c2ccccc2)cc1)C(=O)Nc1ccc2c(c1)OCCO2 (centres unmarked) [CBK268002]	113.004
Cc1ccc(Cn2c(OCCN(C)C)nc3c2c(=O)n(C)c(=O)n3C)cc1 [CBK134241]	91.8489
CCN(CC)C(=O)C1CCCN1C(=O)c1ccnc(N(C)C)c1 (centres unmarked) [CBK305086]	79.0306
C(=N\N1CCN(Cc2cccc3ccccc23)CC1)/c1ccncc1 [CBK263003]	97.5317
O=C(Cn1c(NCCCO)nc2ccccc21)c1ccc(Cl)c(Cl)c1 [CBK262905B]	97.5818
Cc1ccc2c(c1)C(=O)CC1(CCN(C(=O)C3CCCC3)CC1)O2 [CBK283718]	109.521
CC(C)c1ncc(CN2CCC(CC(=O)N3CCN(c4ccccc4)CC3)CC2)cn1 [CBK286048]	76.8105
CC(C)CNC(=S)N[C@H]1CO[C@H]2[C@@H]1OC[C@@H]2Nc1nccc(C(C)(C)C)n1 [CBK289523]	92.5865

SMILES	% of control remaining
CCn1c(C)cc(C(=O)N2CCN(c3nccc(OC)n3)CC2)c1C [CBK305791]	102.837
Cc1nn(C)c(C)c1CN(C(=O)c1ccc(C)n(C)c1=O)C1CC1 [CBK281450]	88.8485
COc1cccc(C2Nc3ccc4ccccc4c3C3=C2C(=O)CC(C)(C)C3)c1OCC(=O)O (centres unmarked) [CBK263045]	95.0027
C=CCn1c(Cc2csc(NC(=O)c3ccc([N+](=O)[O-])cc3Cl)n2)n[nH]c1=S [CBK295291]	93.71
COc1ccc([C@@]23CC[C@@H](NC(=O)Nc4ccc(OC(F)(F)F)cc4)C[C@@H]2N(C)CC3)cc1OC [CBK036455T]	83.4238
O=C(Cc1ccc(Cl)cc1)NC(=S)Nc1ccccc1[N+](=O)[O-] [CBK263909]	96.2263
CN(C)C(=O)CCNC(=O)c1ccc2c(c1)nc(N1CC[C@H](O)C1)n2C [CBK306671]	55.8065
CCc1nn(CC(=O)NC2CCC2)c(=O)c2cc3sc(C)cc3n12 [CBK284142]	97.6331
CC(=O)c1ccc(C(=O)Nc2ccc3nc(C)sc3c2)cc1 [CBK287310]	127.186
COc1ccc(CNC(=O)c2cc(S(=O)(=O)N3CCCC3)c[nH]2)cc1 [CBK304601]	75.9862
Cc1ccc(N2C(=O)C(CC(=O)Nc3cccc(F)c3)N(CCc3ccncc3)C2=O)cc1 (centres unmarked) [CBK268891]	93.1916
CCOC(=O)c1cnn2c(O)cc(CN3CCc4sccc4C3)nc12 [CBK305680]	86.5293
O=C(Nc1cnc(-c2ccc(F)c(Cl)c2)c(-c2cccnc2)n1)c1cnccn1 [CBK036819]	101.416
Nc1ncccc1C(=O)OCc1ccc(-c2ccccc2)cc1 [CBK295353]	95.863
COc1cccc(CC(=O)NCCNc2cccc(F)c2C#N)c1 [CBK305684]	65.2811
CC(C)(C)NCCN1CCn2c1nc1ccccc12 [CBK019113]	36.1487
O=C(O)CNC1=NC2(CCCCC2)Cc2ccccc21 [CBK287001]	82.2505
O=C(NCc1ccco1)c1ccc2c(c1)OCO2 [CBK262133]	99.1335
OCCNc1nc(Nc2ccc(O)cc2)nc2ccccc12 [CBK266606C]	79.2894
c1cnc(NCc2cc3n(n2)CCN(CC2CCCC2)C3)nc1 [CBK307007]	76.9286
Cc1nc2c(OCCOc3ccccc3)cccn2c1N(C)CC1CC1 [CBK147272]	103.272
O=C(Nc1ccc(F)cc1)C1CC(=O)n2c(nc3ccccc32)N1 (centres unmarked) [CBK287282]	107.04
CN(C)CC(=O)Nc1ccc2n(c1=O)C[C@H]1C[C@@H]2CN(Cc2ccccn2)C1 [CBK289206]	83.4248
Cc1cccc(-n2nnnc2SC(C)C(=O)O)c1 (centres unmarked) [CBK287003]	110.669
CCOc1ccc2cc(C3CC(c4ccccc4)=NN3C(=O)CCC(=O)O)c(Cl)nc2c1 (centres unmarked) [CBK296097]	86.3432
Cc1nccn1CCCn1cncc1-c1ccc2c(c1)CC(C)(C)O2 [CBK281809]	97.2228
Cc1ccc(CNC(=O)c2ccc3c(c2)NC(=O)C(N2CCCC2)S3)cc1 (centres unmarked) [CBK071788]	55.9108

SMILES	% of control remaining
COc1ccc(-n2cc(-c3ccncc3)nn2)cc1OC [CBK113106]	110.225
O=c1cc(NCc2ccncc2)c2ccccc2o1 [CBK017259]	76.5581
CC(NC(=O)C1CCN(CCCN(C)S(C)(=O)=O)CC1)c1cccc2ccccc12 (centres unmarked) [CBK148651]	67.3278
Cc1ccc(-c2noc(CSc3nnc(CCc4ccccc4)n3-c3ccccc3)n2)cc1 [CBK268493]	106.984
CCOc1ccc(C2=NN(C(=O)CCC(=O)O)C(c3ccc4nccnc4c3)C2)cc1 (centres unmarked) [CBK296703]	81.3941
COc1ccccc1CN(C)CCc1ccccn1 [CBK261741G]	96.0156
CNc1nc(NCCCn2c(C)cccc2=O)cc(C2CCOC2)n1 (centres unmarked) [CBK306875]	40.4835
O=C(O)c1ccc(NC2=NS(=O)(=O)c3ccccc32)cc1 [CBK287084]	96.3326
CCC(Cc1ccccc1C)c1cc(O)c(C(c2ccccc2)C2CC2)c(=O)o1 (centres unmarked) [CBK016783]	96.7864
OC1CCN(Cc2c([C@H]3CCCO3)[nH]c3ncccc23)CC1 [CBK286301]	62.2042
CN(C)S(=O)(=O)N(CC(=O)O)c1ccccc1 [CBK267660]	80.9909
CC1CCN(S(=O)(=O)c2ccc(C(=O)N3CCC(C(=O)O)CC3)cc2)CC1 [CBK297097]	69.497
O=C(Nc1sc2c(c1C(=O)NCc1cccnc1)CCC2)c1ccco1 [CBK269599]	104.978
O=S(=O)(c1ccc(F)cc1F)N1CCN(Cc2ccc3c(c2)OCO3)CC1 [CBK074744]	101.804
CC(CC(=O)N1CCC(c2cc3cccnc3[nH]2)CC1)n1ccnc1 (centres unmarked) [CBK285028]	87.9454
Cc1noc(C)c1NC(=O)c1ccncc1 [CBK200389]	98.667
O=C(O)c1ccc(Cl)c(-c2ccc(/C=N\Nc3ccc([N+](=O)[O-])cn3)o2)c1 [CBK263431]	92.8706
CC1(COC(=O)N2CCC(OCc3cnc(-c4ccc(S(C)(=O)=O)cc4)cn3)CC2)COC1 [CBK172009]	63.9461
CC(C)(C)NC(=O)CCn1c(-c2cccnc2)cc2cccnc21 [CBK282691]	75.6391
CC(C)Oc1cccc(CNC(=O)c2ccc(C(C)(C)C)[nH]c2=O)c1 [CBK281415]	76.8067
O=C(c1ccc2c(c1)CCO2)N1CCC(S(=O)(=O)c2ccc(-c3ccccc3)cc2)CC1 [CBK131957]	81.9202
Cc1ccc(-c2c[nH]c([C@@H]3COCCN3Cc3c[nH]c4ccccc34)n2)cc1 [CBK289308]	79.0078
O=S(=O)(c1ccc(C(F)(F)F)cc1Cl)N1CCN(Cc2cccc3cccnc23)CC1 [CBK063075]	83.1356
Cn1c(=O)c2c(nc(CN3CCOCC3)n2CCc2ccccc2)n(C)c1=O [CBK269264]	108.988
Cc1cccnc1CN1CCN(C(=O)NCCSc2nncn2C)CC1 [CBK306949]	72.1647
CC(=O)Nc1cccc(NCc2csc(C3CCCC3)n2)c1 [CBK304874]	70.1664
